# Some of the results follow.
# B1: Surfactant Protein D (rat); Neck + Carbohydrate Recognition Domain (NCRD) (Rattus norvegicus) (protein)
# chain: MLLFLLSALVLLTQPLGYLEAEMKTYSHRTMPSACTLVMCSSVESGLPGRDGRDGREGPRGEKGDPGLPGAAGQAGMPGQAGPVGPKGDNGSVGEPGPKGDTGPSGPPGPPGVPGPAGREGALGKQGNIGPQGKPGPKGEAGPKGEVGAPGMQGSAGARGAGPKGERGVPGERGVPGNTGAAGSAGAMGPQGSPGARGPPGLKGDKGIPGDKGAKGESGLPDVASLRQQVEALQGQVQHLQAAFSQYKKVELFPNGQSVGEKIFKTAGFVKPFTEAQLLCTQAGGQLASPRSAAENAALQQLVVAKNEAAFLSMTDSKTEGKFTYPTGESLVYSNWAPGEPNDDGGSEDCVEIFTNGKWNDRACGEKRLVVCEF
# Assays:
# Experiment in all cases: glycan array binding signal (z-score within array); higher = stronger binding
# Conditions in all cases: glycan notation: IUPAC condensed, linker removed
# [1] = target: Fuc(a1-3)[Gal(b1-4)]GlcNAc(b1-2)Man(a1-6)[Gal(b1-4)GlcNAc(b1-2)Man(a1-3)]Man(b1-4)GlcNAc(b1-4)GlcNAc
# Procedure, shortened: (§1)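 Negative Z-scores can be read as non-binding. The Z-score is calculated within each array and then averaged across arrays of one protein sequence at different concentrations or buffers and across linkers. Arrays, 3228 in all, were curated from the Consortium for Functional Glycomics database and kept only where the protein sequence was available.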
# [2] = target: Fuc(a1-3)[Gal(b1-4)]GlcNAc(b1-3)Gal(b1-3)[Fuc(a1-4)]GlcNAc
# Procedure, shortened: as §1
# [3] = target: Fuc(a1-3)[Gal(b1-4)]GlcNAc(b1-4)Gal(b1-4)[Fuc(a1-3)]GlcNAc
# Procedure, shortened: as §1
# [4] = target: Fuc(a1-3)[Gal(b1-4)]GlcNAc(b1-4)Gal(b1-4)[Fuc(a1-3)]GlcNAc(b1-4)Gal(b1-4)[Fuc(a1-3)]GlcNAc
# Procedure, shortened: as §1
# [5] = target: Fuc(a1-3)[Gal(b1-4)]GlcNAc6S
# Procedure, shortened: as §1
# [6] = target: Fuc(a1-3)[Gal3S(b1-4)]Glc6S
# Procedure, shortened: as §1
# [7] = target: Fuc(a1-3)[Gal3S(b1-4)]GlcNAc
# Procedure, shortened: as §1
# [8] = target: Fuc(a1-3)[Gal3S(b1-4)]GlcNAc6S
# Procedure, shortened: as §1
# [9] = target: Fuc(a1-3)[GalNAc(b1-4)]GlcNAc
# Procedure, shortened: as §1
# Fuc(a1-4)GlcNAc = target: Fuc(a1-4)GlcNAc
# Procedure, shortened: as §1
# Fuc(b1-3)GlcNAc = target: Fuc(b1-3)GlcNAc
# Procedure, shortened: as §1
# Gal(a1-2)Gal = target: Gal(a1-2)Gal
# Procedure, shortened: as §1
# Gal(a1-3)Gal = target: Gal(a1-3)Gal
# Procedure, shortened: as §1
# Gal(a1-3)Gal(b1-3)GlcNAc = target: Gal(a1-3)Gal(b1-3)GlcNAc
# Procedure, shortened: as §1
# Gal(a1-3)Gal(b1-4)Glc = target: Gal(a1-3)Gal(b1-4)Glc
# Procedure, shortened: as §1
# Gal(a1-3)Gal(b1-4)GlcNAc = target: Gal(a1-3)Gal(b1-4)GlcNAc
# Procedure, shortened: as §1
# [10] = target: Gal(a1-3)Gal(b1-4)[Fuc(a1-3)]GlcNAc
# Procedure, shortened: as §1
# Gal(a1-3)GalNAc = target: Gal(a1-3)GalNAc
# Procedure, shortened: as §1
# [11] = target: Gal(a1-3)[Gal(a1-4)]Gal(b1-4)GlcNAc
# Procedure, shortened: as §1
# Gal(a1-4)Gal(b1-4)Glc = target: Gal(a1-4)Gal(b1-4)Glc
# Procedure, shortened: as §1
# Gal(a1-4)Gal(b1-4)GlcNAc = target: Gal(a1-4)Gal(b1-4)GlcNAc
# Procedure, shortened: as §1
# Gal(a1-4)GlcNAc = target: Gal(a1-4)GlcNAc
# Procedure, shortened: as §1
# Gal(a1-6)Glc = target: Gal(a1-6)Glc
# Procedure, shortened: as §1
# Gal(b1-2)Gal = target: Gal(b1-2)Gal
# Procedure, shortened: as §1
# Gal(b1-3)Gal = target: Gal(b1-3)Gal
# Procedure, shortened: as §1
# Gal(b1-3)Gal(b1-4)GlcNAc = target: Gal(b1-3)Gal(b1-4)GlcNAc
# Procedure, shortened: as §1
# Gal(b1-3)GalNAc = target: Gal(b1-3)GalNAc
# Procedure, shortened: as §1
# [12] = target: Gal(b1-3)GalNAc(b1-3)Gal(a1-4)Gal(b1-4)Glc
# Procedure, shortened: as §1
# [13] = target: Gal(b1-3)GalNAc(b1-4)Gal(b1-4)Glc
# Procedure, shortened: as §1
# [14] = target: Gal(b1-3)GalNAc(b1-4)[Neu5Ac(a2-3)]Gal(b1-4)Glc
# Procedure, shortened: as §1
# Gal(b1-3)GlcNAc = target: Gal(b1-3)GlcNAc
# Procedure, shortened: as §1
# [15] = target: Gal(b1-3)GlcNAc(b1-2)Man(a1-3)[Gal(b1-3)GlcNAc(b1-2)Man(a1-6)]Man(b1-4)GlcNAc(b1-4)GlcNAc
# Procedure, shortened: as §1
# [16] = target: Gal(b1-3)GlcNAc(b1-3)Gal(b1-3)GlcNAc
# Procedure, shortened: as §1
# [17] = target: Gal(b1-3)GlcNAc(b1-3)Gal(b1-4)Glc
# Procedure, shortened: as §1
# [18] = target: Gal(b1-3)GlcNAc(b1-3)Gal(b1-4)GlcNAc
# Procedure, shortened: as §1
# [19] = target: Gal(b1-3)[Fuc(a1-4)]GlcNAc
# Procedure, shortened: as §1
# [20] = target: Gal(b1-3)[Fuc(a1-4)]GlcNAc(b1-3)Gal(b1-3)[Fuc(a1-4)]GlcNAc
# Procedure, shortened: as §1
# [21] = target: Gal(b1-3)[Fuc(a1-4)]GlcNAc(b1-3)Gal(b1-4)GlcNAc
# Procedure, shortened: as §1
binder,measurement,setting,value
B1,glycan array binding signal (z-score),[1],-0.165
same,glycan array binding signal (z-score),[2],-0.187
same,glycan array binding signal (z-score),[3],-0.139
same,glycan array binding signal (z-score),[4],-0.179
same,glycan array binding signal (z-score),[5],0.145
same,glycan array binding signal (z-score),[6],-0.006
same,glycan array binding signal (z-score),[7],0.026
same,glycan array binding signal (z-score),[8],0.166
same,glycan array binding signal (z-score),[9],-0.189
same,glycan array binding signal (z-score),Fuc(a1-4)GlcNAc,-0.145
same,glycan array binding signal (z-score),Fuc(b1-3)GlcNAc,-0.192
same,glycan array binding signal (z-score),Gal(a1-2)Gal,-0.198
same,glycan array binding signal (z-score),Gal(a1-3)Gal,-0.174
same,glycan array binding signal (z-score),Gal(a1-3)Gal(b1-3)GlcNAc,-0.182
same,glycan array binding signal (z-score),Gal(a1-3)Gal(b1-4)Glc,-0.114
same,glycan array binding signal (z-score),Gal(a1-3)Gal(b1-4)GlcNAc,-0.18
same,glycan array binding signal (z-score),[10],-0.247
same,glycan array binding signal (z-score),Gal(a1-3)GalNAc,-0.226
same,glycan array binding signal (z-score),[11],-0.254
same,glycan array binding signal (z-score),Gal(a1-4)Gal(b1-4)Glc,-0.276
same,glycan array binding signal (z-score),Gal(a1-4)Gal(b1-4)GlcNAc,-0.207
same,glycan array binding signal (z-score),Gal(a1-4)GlcNAc,-0.242
same,glycan array binding signal (z-score),Gal(a1-6)Glc,-0.216
same,glycan array binding signal (z-score),Gal(b1-2)Gal,-0.214
same,glycan array binding signal (z-score),Gal(b1-3)Gal,-0.117
same,glycan array binding signal (z-score),Gal(b1-3)Gal(b1-4)GlcNAc,0.172
same,glycan array binding signal (z-score),Gal(b1-3)GalNAc,-0.181
same,glycan array binding signal (z-score),[12],-0.248
same,glycan array binding signal (z-score),[13],-0.163
same,glycan array binding signal (z-score),[14],-0.068
same,glycan array binding signal (z-score),Gal(b1-3)GlcNAc,-0.178
same,glycan array binding signal (z-score),[15],-0.211
same,glycan array binding signal (z-score),[16],-0.242
same,glycan array binding signal (z-score),[17],-0.194
same,glycan array binding signal (z-score),[18],-0.156
same,glycan array binding signal (z-score),[19],-0.14
same,glycan array binding signal (z-score),[20],-0.062
same,glycan array binding signal (z-score),[21],-0.11

# Source: the supplement of paper PMC8728848
